Results published in PubChem BioAssay AID1508642 (National Center for Advancing Translational Sciences (NCATS), 2021).
Screen size: about 43,000 compounds; about 200 (0.47%) were called active. Not shown: some 12% with an inconclusive outcome. The call rests on the fitted dose curve; in most records, active means well fitted cell-killing curve with a large enough effect; inconclusive means small, poorly fitted or top-dose-only effect, or effect the other way; inactive means flat fitted curve, though single readings scatter. This is one part of the list.

Test: Cell viability qHTS assay in S16 Pmp22-F2sN cells; further: nearly all actives have a fitted effect of over 65% in size
Details: S16 Pmp22-F2sN Schwann cells viability, CellTiter-Glo, 24 h; series mostly up to 57.5 µM; activity change, negative = cytotoxicity: at the top concentration
In short: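 Viability was measured by CellTiter-Glo luminescence (15 min, room temperature). This followed 24 h at 37 °C of compound exposure (23 nL pin transfer) in S16 Pmp22-F2sN Schwann cells, 500-1,000 per well.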
On the % scale 0 is the no-effect control and ±100 the full control effect; potency means the concentration at half of the fitted maximal effect.

Row | Compound | activity change, negative = cytotoxicity | Potency
1 | COC(=O)c1cccc(NC(=O)Nc2cc(C(=O)NCc3cccc(F)c3)ccc2N2CCCC2)c1 | inactive: 13% | –
2 | N#C/C(=C\c1c(Oc2ccc(Br)cc2)nc2ccccn2c1=O)c1nc2ccccc2s1 | inactive: -4.02% | –
3 | Cc1ccc(Cc2nc3ccccc3nc2SCC(=O)N2CCCCC2C)cc1 (stereo unspecified) | inactive: -22.4% | –
4 | O=C(CSc1nc(=O)n(Cc2cccnc2)c2c1CCC2)Nc1ccc(F)cc1F | inactive: -3.18% | –
5 | Cc1nn(C(C)C(=O)NC2CCC(C)CC2)c(=O)c2cc3sccc3n12 (stereo unspecified) | inactive: 2.46% | –
6 | COc1ccccc1N1CCN(C(=O)c2cn(C)c3ccc(S(=O)(=O)N4CCOCC4)cc3c2=O)CC1 | inactive: 3.33% | –
7 | COc1ccc(Cl)cc1NC(=O)c1cc(C)nn1-c1ccccc1 | inactive: -7.41% | –
8 | CCOC(=O)c1c(NC(=O)c2cc(=O)c3ccc(C)cc3o2)sc(C)c1C | inactive: -1.11% | –
9 | COc1cccc(N2CCN(S(=O)(=O)c3ccc4c(c3)CCCN4C(C)=O)CC2)c1 | inactive: -1.03% | –
10 | CC(=O)N1CCc2cc(Br)cc(S(=O)(=O)N3CCN(c4cccc(C)c4)C(C)C3)c21 (stereo unspecified) | inactive: 19.2% | –
11 | COc1ccc(N2CCN(C(=O)CS(=O)(=O)c3cccc4nsnc34)CC2)cc1 | inactive: -1.52% | –
12 | CCCCN1CCc2nc(N3CCN(C)CC3)ncc2C1 | inactive: 8.8% | –
13 | O=C(NCCc1csc(-c2cccnc2)n1)c1ccc(F)c(F)c1 | inactive: 0.751% | –
14 | CCOC(=O)c1c(S(=O)(=O)N2CCC(C(=O)N3CCN(c4cc(C)ccc4C)CC3)CC2)c(C)n(C)c1C | inactive: -10.2% | –
15 | Cc1sc2c(c1C)c(=O)n(-c1ccc(Cl)cc1)c(=O)n2Cc1c(F)cccc1Cl | inactive: 3.62% | –
16 | COc1cc(C2C(C(=O)Nc3ccccc3)=C(C)Nc3nc(SCc4ccccc4F)nn32)cc(OC)c1OC (stereo unspecified) | inactive: -11.5% | –
17 | CC1CCN(S(=O)(=O)c2cc(C(=O)Nc3ccc(Br)cc3F)n(C)c2)CC1 | inactive: 8.08% | –
18 | COC(=O)c1cc(NC(=O)CCc2c(C)nc3cc(-c4ccccc4)nn3c2C)cc(C(=O)OC)c1 | inactive: 4.39% | –
19 | Cc1ccc(-c2cc(C(=O)N3CCN(c4ccccc4)CC3)c3ccccc3n2)cc1C | inactive: -18.3% | –
20 | COc1ccc(C)cc1NC(=O)Cn1cc(S(=O)(=O)Cc2ccccc2Cl)c2ccccc21 | inactive: -20.8% | –
21 | CCOc1cc2c(cc1OCC)C(c1c(F)cccc1Cl)CC(=O)N2 (stereo unspecified) | inactive: 0.42% | –
22 | CCc1ccccc1NC(=O)c1nc(-c2ccncc2)no1 | inactive: 1.02% | –
23 | Cc1cccc(NC(=O)Cn2c(C(F)(F)F)nc3ccccc32)c1C | inactive: 4.78% | –
24 | O=C(NCCc1csc2nc(-c3ccc(F)cc3)nn12)c1ccco1 | inactive: -2.62% | –

Row | Compound | activity change, negative = cytotoxicity | Potency
25 | Cc1ccc(N2CC(NC(=O)C(=O)c3c[nH]c4ccccc34)CC2=O)cc1 (stereo unspecified) | inactive: -3.49% | –
26 | COc1ccccc1OCC(=O)NCC1(N(C)C)CCCCC1 | inactive: 0.782% | –
27 | CC(C)CCNC(=O)c1ccc2c(c1)N(Cc1ccccc1F)C(=O)c1ccccc1S2=O (stereo unspecified) | inactive: -5.02% | –
28 | Cc1ccc(Cn2c(CCCNC(=O)C3CCCCC3)nc3ccccc32)cc1 | inactive: -2.82% | –
29 | O=C(Cn1ncc2c(Cl)cccc21)NCc1cccc(Br)c1 | inactive: -0.431% | –
30 | COc1ccc(C2=C(C)C(=O)N(Cc3ccc(C(=O)Nc4ccc(F)cc4C)cc3)S2(=O)=O)cc1 | inactive: -0.147% | –
31 | CCN(CC)CCn1c(=N)n(CCOc2ccccc2Cl)c2ccccc21 | – | active: 28.2 µM
32 | Cc1cccc(-c2nc(CS(=O)CC(=O)NCc3ccc(Cl)cc3)c(C)o2)c1 (stereo unspecified) | inactive: -4.06% | –
33 | O=C1CN(C(=O)c2ccc(S(=O)(=O)N3CCCCC3)cc2)C(c2ccc(F)cc2)c2cc(Cl)ccc2N1 (stereo unspecified) | inactive: -14.6% | –
34 | Cc1ccc2nc(-c3cccc(NC(=O)c4cccc5c(Cl)cccc45)c3)oc2c1 | inactive: -20.4% | –
35 | CCOC(=O)c1c(C)oc2nc(C)nc(NCC3CCN(Cc4ccccc4C)CC3)c12 | inactive: 12.2% | –
36 | O=C(NCC(c1cccnc1)N1CCOCC1)C(=O)Nc1ccc(Cl)cc1 (stereo unspecified) | inactive: 1.61% | –
37 | COc1ccc(-c2[nH]ncc2C(=O)NCc2cccc(Cl)c2)cc1 | inactive: -13.7% | –
38 | COc1cccc(-c2cn3c(n2)sc2cc(C(=O)NCc4ccccc4F)ccc23)c1 | inactive: 13.5% | –
39 | CCOC(=O)c1cc(-c2ccccc2)n(CC(=O)NCc2ccc(C)cc2)c1C | inactive: 2.6% | –
40 | COc1ccc(CNC(=O)CCCN2C(=O)CCn3nc(-c4cn(C)c5ccccc45)cc32)cc1 | inactive: -13.3% | –
41 | O=C(NCCC1=CCCCC1)C1CCN(C(=O)N2CCOc3ccccc32)CC1 | inactive: 4.57% | –
42 | COc1ccc(OC)c(NC(=O)Cn2ncc3c2-c2ccccc2OC3)c1 | inactive: 0.207% | –
43 | O=C(NCCc1ccc(Cl)cc1)C1(c2cccs2)CCOCC1 | inactive: 22.9% | –
44 | Cc1ccc(-n2c(=O)c3cccnc3n2CC(=O)Nc2ccc(C)cc2Cl)cc1 | inactive: -6.9% | –
45 | Cc1c(Cl)cccc1NC(=O)CSc1nc(=O)[nH]c2c1CCCC2 | inactive: -13% | –
46 | CC(C)(C)c1ccc(C(=O)Nc2ccc(OCc3cc(=O)n4ccsc4n3)cc2)cc1 | inactive: 13.8% | –
47 | Cc1cc(N2CCN(c3ccccc3)CC2)n2cnnc2n1 | inactive: 3.45% | –
48 | COc1ccc(CCNC(=O)c2ccc(Cn3c(=O)c4ccccc4n(Cc4ccc(F)cc4Cl)c3=O)cc2)cc1OC | inactive: 13.3% | –

Row | Compound | activity change, negative = cytotoxicity | Potency
49 | CCC(Sc1nc2cc(OC)c(OC)cc2c(=O)n1Cc1ccc(OC)cc1)C(=O)NCCOC (stereo unspecified) | inactive: -4.47% | –
50 | CC(=O)c1ccc(NC(=O)c2cc(S(=O)(=O)N3CCOCC3)ccc2C)cc1 | inactive: 3.57% | –
51 | Cc1nc(N2CCOCC2)c2c(C(=O)N(C)c3ccccc3)c(C)oc2n1 | inactive: 0.616% | –
52 | CC(C)Cc1nn2c(=O)cc(COC(=O)c3cccc(NS(C)(=O)=O)c3)nc2s1 | inactive: 13.7% | –
53 | Cc1cc(C)cc(OCC(=O)N(Cc2ccc(Cl)cc2)C2CCS(=O)(=O)C2)c1 (stereo unspecified) | inactive: 1.23% | –
54 | COc1ccccc1CNC(=O)C1CCN(C2=NS(=O)(=O)C(c3ccc(C)c(C)c3)=C2C)CC1 | inactive: -14.1% | –
55 | Cc1nc(-c2ccc(F)cc2)sc1CCNC(=O)c1ccc(OC(C)C)cc1 | inactive: -0.373% | –
56 | CCN1CCN(C(=O)c2ccc3c(c2)N(Cc2ccccc2)C(=O)c2ccccc2S3(=O)=O)CC1 | inactive: 1.33% | –
57 | CCOc1ccc(-c2cn3c(n2)sc2cc(C(=O)N4CCCC(C)C4)ccc23)cc1 (stereo unspecified) | inactive: -10.7% | –
58 | CC1CCN(c2csc3ccc(F)cc3c2=O)CC1 | inactive: 7.99% | –
59 | Cc1ccccc1CNC(=O)C(=O)NCC(c1ccc2c(c1)OCO2)N1CCOCC1 (stereo unspecified) | inactive: -0.91% | –
60 | CN(CCCNC(=O)Cn1ncc2c([nH]c3ccccc32)c1=O)Cc1ccccc1 | inactive: 3.39% | –
61 | Cc1ccc2c(c1)-c1c(cnn1CC(=O)N1CCN(c3cc(C)ccc3C)CC1)CO2 | inactive: 3.99% | –
62 | COCCc1nn2c(=O)cc(COC(=O)c3ccco3)nc2s1 | inactive: 10.2% | –
63 | O=C(NCc1ccc(Cl)cc1)c1ccc(CNS(=O)(=O)c2ccc(F)cc2)cc1 | inactive: 0.29% | –
64 | COc1ccc(Cl)cc1NC(=O)CSc1nnc2[nH]c(=O)cc(C)n12 | inactive: -2.86% | –
65 | CCOc1ccc(-c2nc(C(N)=O)c3c(n2)n(-c2ccc4c(c2)OCO4)c(=O)n3CC)cc1 | inactive: 23% | –
66 | COc1ccccc1CNc1ncnc2c1c(-c1ccccc1)cn2-c1ccc(Br)cc1 | inactive: -7.49% | –
67 | CCN(CC)c1ccc(NC(=O)Cn2c3ncccc3c(=O)n2-c2ccccc2)c(C)c1 | inactive: -0.527% | –
68 | COc1cc2c(=O)c(C(=O)c3ccc(F)cc3)cn(Cc3cccc(F)c3)c2cc1OC | inactive: -17.5% | –
69 | Cc1ccc(C(=O)NCCC(C)C)cc1NC(=O)c1nsc2ccccc12 | inactive: -19.4% | –
70 | COC(=O)c1cc(S(=O)(=O)N2CCN(c3cc(Cl)ccc3C)CC2)c[nH]1 | inactive: 0.318% | –
71 | CC1=C(C(N)=O)C(c2ccccc2F)n2nc(-c3ccc(Cl)cc3)nc2N1 (stereo unspecified) | inactive: -2.1% | –
72 | Cc1ccc(CNC(=O)Cn2cc3c(n2)-c2c(oc(C(=O)N4CCOCC4)c2C)CC3)cc1 | inactive: -11.8% | –

Row | Compound | activity change, negative = cytotoxicity | Potency
73 | Cc1cc(C)c2oc(C(=O)Nc3c(C(=O)c4ccccc4)oc4ccccc34)cc(=O)c2c1 | inactive: 0.253% | –
74 | O=S(=O)(NCC(c1ccco1)N1CCOCC1)c1ccc(F)cc1 (stereo unspecified) | inactive: 14.4% | –
75 | COc1ccc(OC)c(NC(=O)N2CC(C)Oc3ccc(C)cc32)c1 (stereo unspecified) | inactive: -0.473% | –
76 | Cc1ccc(C(=O)c2cn(CC(=O)NCc3ccccc3)c3nc(C)ccc3c2=O)cc1 | inactive: 3.55% | –
77 | Cc1cc(C)n(CC(=O)Nc2cc(F)ccc2F)c(=O)c1C#N | inactive: 12.6% | –
78 | COc1ccc(C(=O)Nc2nc(-c3nnn(-c4ccc(F)cc4F)c3C)ns2)cc1 | inactive: -18.9% | –
79 | COc1cccc(C(=O)Nc2ccc3nc4n(c(=O)c3c2)CCCCC4)c1 | inactive: 0.492% | –
80 | Cc1ccc(O)c(Nc2nc3ccccc3c3nncn23)c1 | inactive: 6.42% | –
81 | CC(C)c1nc2ccc(C(=O)NCCCN3CCN(c4ccccc4)CC3)cc2o1 | inactive: -8.68% | –
82 | O=C(CN1CCN(Cc2ccc(F)cc2Cl)C1=O)NCCc1ccc(Cl)cc1 | inactive: 11.4% | –
83 | CCOc1ccc(C(=O)Nc2ccc3oc(-c4cccc5ccccc45)nc3c2)cc1 | inactive: 11.3% | –
84 | Cc1ccc(-c2nc(C)c(CCNC(=O)C(=O)Nc3cc(C)ccc3C)s2)cc1 | inactive: 22.3% | –
85 | Cc1csc2nc(-c3ccc(NS(=O)(=O)c4cccc(F)c4)cc3)cn12 | inactive: 10.3% | –
86 | CCc1ccccc1NC(=O)Cn1c(=O)n(Cc2ccccc2)c(=O)c2c(C)c(C(=O)N(C)C)sc21 | inactive: 3.42% | –
87 | Cc1csc2nc(-c3cccc(NS(C)(=O)=O)c3)cn12 | inactive: 0.126% | –
88 | Cc1ccccc1CN1c2ccccc2-c2nc(SCC(=O)c3ccc(Cl)cc3)ncc2S1(=O)=O | inactive: 4.53% | –
89 | COCCCNC(=O)CCCN1C(=O)CCn2nc(-c3cccn3C)cc21 | inactive: 7.69% | –
90 | CSc1ncc(Cl)c(C(=O)Nc2c(C(=O)Nc3cccc(C)c3)oc3ccccc23)n1 | inactive: 7.1% | –
91 | Cc1ccc(S(=O)(=O)c2c(Nc3ccc(C)c(C)c3)sc(C(=O)c3ccc4c(c3)OCO4)c2N)cc1 | inactive: -1.94% | –
92 | Cc1ccccc1-c1noc(-c2ccc(N3CCC(C)CC3)c([N+](=O)[O-])c2)n1 | inactive: 8.87% | –
93 | Cc1ccccc1CNC(=O)c1ccc(NC(=O)N2CCCCc3ccccc32)cc1 | inactive: 1.25% | –
94 | COc1cc(CNCCSc2nnnn2C)ccc1OCc1ccccc1C | inactive: 0.0651% | –
95 | CCCOc1ccc(C2=NC(c3ccncc3)=Nc3ccc(C)cc3N2)cc1 | inactive: 0.447% | –
96 | Cc1ccc(-c2n[nH]c3c2C(c2ccccc2Cl)N(c2ccc(C(=O)O)cc2)C3=O)cc1 (stereo unspecified) | inactive: 9.39% | –
